Laboratory results: PubChem BioAssay AID1347417 (National Center for Advancing Translational Sciences (NCATS), 2020)
Out of some 120,000 compounds screened, about 5,300 (4.4%) were called active. Inconclusive results, whose numbers are uncertain, are shown with a selection of clear calls. The call rests on the fitted dose curve; in most records, active means well fitted inhibition curve with a large enough effect; inconclusive means small, poorly fitted or top-dose-only effect; inactive means no such curve, though single readings can be large or run the other way. Potencies beside an inconclusive call are fits to weak or partial responses and may not hold up.

Assay: qHTS Primary assay for Inhibitors of Plasmodium falciparum Dd2 growth in vitro; further: nearly all actives have a fitted effect of over 65% in size;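 on activity, negative = inhibition: plate controls were DMSO vehicle for no effect and reference drug for full effect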
Conditions: P. falciparum Dd2 growth, SYBR Green, 72 h; activity, negative = inhibition: at 28.9 µM (top of the series) unless noted; series mostly up to 28.9 µM
Outline: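 Readout: SYBR Green fluorescence, 485 nm excitation, 535 nm emission, after ~16 h lysis at 37C. Before that, Dd2-infected red cells (2.5% hematocrit) grew 72 h with compound, 29 uM top final concentration.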
Potency means the concentration at half of the fitted maximal effect; tags describe the fitted curve by direction and shape.

| SMILES | outcome | activity, negative = inhibition | Potency |
| --- | --- | --- | --- |
| CCN1C(=O)CCc2cc(NC(=O)c3ccc(F)cc3)ccc21 | inactive | – | – |
| COc1ccc(CCC(=O)N2CCC(Cc3nncn3C(C)C)C2)cc1 (stereo not drawn) | – | inactive: -17.8% | – |
| COc1ccc2c(c1)CCc1c(C(=O)Nc3c(C)nn(Cc4c(Cl)cccc4Cl)c3C)noc1-2 | – | – | inconclusive: 7.08 µM [inhibitor, partial curve, poor fit] |
| O=C(NC1CCN(c2cc(-c3ccc(F)cc3)[nH]n2)C1)c1ccccc1 (stereo not drawn) | – | inactive: -9.07% | – |
| Cc1nc2c(c(-c3ccc(O)cc3)n1)CN(Cc1ccsc1)CCC2 | inactive | – | – |
| O=C(CC1C(=O)NCCN1Cc1ccc(-c2ccccc2)cc1)NC(CO)CO (stereo not drawn) | – | inactive: -0.63% | – |
| COC1CCCN(c2cc(-c3ccsc3)nc3c(C)noc23)C1 (stereo not drawn) | – | – | inconclusive: 10 µM [inhibitor, single point] |
| CCC1CN(C(=O)N2CCC(C(=O)NCc3ccc(N(C)C)cc3)CC2)c2ccccc2O1 (stereo not drawn) | – | – | inconclusive: 17.8 µM [inhibitor, single point] |
| CN(Cc1ccco1)C(=O)Cc1cccn1-c1ccc(F)cc1 | – | – | inconclusive: 17.8 µM [inhibitor, single point] |
| O=C(O)CCC(=O)N1C[C@@H]2C[C@H](C1)c1c(-c3cc4ccccc4s3)ccc(=O)n1C2 | – | – | inconclusive: 31.6 µM [inhibitor, single point] |
| O=C(NCc1ccccc1)C1CCCN(S(=O)(=O)c2cccc3nsnc23)C1 (stereo not drawn) | – | – | inconclusive: 7.94 µM [inhibitor, single point] |
| CC(C)(C)OC(=O)N1CCC(c2c(C(=O)Nc3ccc4c(c3)OCCO4)cnn2-c2ccc(Cl)cc2)CC1 | – | – | active: 7.08 µM |
| CNC(=O)c1cnc2c(c1)N(C(=O)Cc1ccc(C(C)C)cc1)CCC2 | – | – | inconclusive: 0.251 µM [inhibitor, full curve] |
| Clc1cccc(N2CCN(c3nc4ccccc4n4nnnc34)CC2)c1 | – | – | inconclusive: 17.8 µM [inhibitor, single point] |
| COc1ccc(-c2cc([C@H]3CN4CC[C@H]3C[C@@H]4CNC(=O)c3ccc4c(c3)OCO4)n(C)n2)cc1 | – | – | inconclusive: 8.91 µM [inhibitor, partial curve, poor fit] |
| COc1ccc(C(=O)Nc2ccc3oc(-c4cccnc4)nc3c2)cc1 | – | – | inconclusive: 1 µM [inhibitor, single point] |
| COc1ccc(C2C=C(c3ccccc3)Nc3nc(NC(=O)c4cccc([N+](=O)[O-])c4)nn32)cc1 (stereo not drawn) | – | – | active: 8.91 µM |
| O=C1N[C@H](CC(=O)N2CCN(Cc3ccccc3Cl)CC2)C(=O)Nc2ccccc21 | – | – | inconclusive: 10 µM [inhibitor, partial curve, poor fit] |
| O=C(NCCc1cnc[nH]1)c1ccc(-c2ncc3cnc(-c4cccc(F)c4)cn23)cc1 | – | – | inconclusive: 17.8 µM [inhibitor, partial curve, poor fit] |
| CN1CCC(C(=O)N2Cc3ccccc3CC3(CCCN(Cc4ccccn4)C3)C2)CC1 (stereo not drawn) | – | – | inconclusive: 7.94 µM [inhibitor, partial curve] |
| COc1ccc(-c2noc([C@@H](C)NCC3CCCCC3)c2C(=O)O)cc1 | – | inactive: -13.6% [at 44.1 µM] | – |
| CCn1c(C2CCN(C(=O)[C@@H](N)Cc3cnc[nH]3)CC2)nn(C)c1=O | – | inactive: 10.1% | – |
| FC(F)(F)c1ccc2nc([C@H]3CCN(CC4CC4)C3)[nH]c2c1 | – | – | active: 12.6 µM |

| SMILES | outcome | activity, negative = inhibition | Potency |
| --- | --- | --- | --- |
| Cc1ccc(NC(=O)c2oc3ccc(S(=O)(=O)N4CCC5(CC4)OCCO5)cc3c2C)cc1C | – | – | inconclusive: 5.62 µM [inhibitor, partial curve, poor fit] |
| O=C1CO[C@H]2CCN(Cc3cccc(OC(F)(F)F)c3)CC[C@@H]2N1Cc1ccccc1 | inactive | – | – |
| Cc1cc(Cl)ccc1OCC(=O)N1CCc2nn(C)c(=O)n2CC1 | – | inactive: -3.92% | – |
| COc1ccc2c(c1)CCN=C2C[C@H]1CN(C(=O)C(C)(C)C)CC[C@H]1CC(=O)O | – | – | inconclusive: 12.6 µM [inhibitor, partial curve, poor fit] |
| COCC1CN(C(=O)c2nccn2C)CC12CCNCC2 (stereo not drawn) | – | inactive: 18.4% | – |
| CCOC(=O)c1ccc(NC(=O)C2CCCN(c3ncnc4onc(-c5ccc(F)cc5)c34)C2)cc1 (stereo not drawn) | – | – | active: 8.91 µM |
| CN(C)Cc1ccc2c(c1)c(OC(C)(C)C(=O)NC1CC1)nn2Cc1ccccc1 | – | – | inconclusive: 2.51 µM [inhibitor, partial curve, poor fit] |
| Cc1ccc(OCC(=O)Nc2cccc(-c3nc4ccccc4s3)c2)cc1 | – | – | inconclusive: 11.2 µM [inhibitor, single point] |
| O=C(NCc1ccc2c(c1)OCO2)c1noc(-c2ccc(F)cc2)n1 | inactive | – | – |
| CCn1c(CO)nnc1C1CC(NC(=O)c2ccccc2-n2cccn2)C1 (stereo not drawn) | – | – | inconclusive: 3.98 µM [inhibitor, single point] |
| OC1(CN2CCN(C/C=C/c3ccccc3)CC2)CNCCOC1 (stereo not drawn) | – | – | inconclusive: 10 µM [inhibitor, partial curve, poor fit] |
| O=S(=O)(Cc1ccccc1F)N1CCCC(Cc2noc(-c3cnccn3)n2)C1 (stereo not drawn) | – | – | inconclusive: 20 µM [inhibitor, single point] |
| COc1ccccc1Nc1ncc2c(n1)CN([S+](=O)([O-])c1ccccc1)CCN2 | – | inactive: 9.33% [at 44.1 µM] | – |
| Cc1nc(-c2ccccc2Br)cc([C@H]2CN3CC[C@H]2C[C@@H]3CNC(=O)c2ccc(N(C)C)cc2)n1 | – | – | inconclusive: 2.82 µM [inhibitor, single point] |
| Cc1oc2c(c1C(=O)N1CCSCC1)CN(Cc1cccc(F)c1)CC2 | – | – | active: 11.2 µM |
| COc1cccc(CNC(=O)Cn2c(N(C)Cc3ccccc3)nc(C)cc2=O)c1OC | – | – | inconclusive: 10 µM [inhibitor, single point] |
| COc1ncccc1Nc1ncc(-c2ccccc2)c2c1OCC2 | – | inactive: -0.012% [at 44.1 µM] | – |
| COc1ccc(C(=O)N2CCC3(CC2)CC(O)CCO3)c(OC)c1 (stereo not drawn) | – | – | inconclusive: 0.251 µM [inhibitor, full curve] |
| COc1ccc(CC(=O)Nc2sc3c(c2C(=O)Nc2cccc(Cl)c2)CCCCC3)cc1 | – | – | inconclusive: 6.31 µM [inhibitor, partial curve, poor fit] |
| Cc1noc([C@@H]2CN(C(=O)c3ccc4ccccc4n3)C[C@H]2CO)n1 | – | inactive: 16.5% | – |
| O=C(NCc1cccs1)c1ccc(Cn2c(SCc3ccccc3)nc3cccnc32)cc1 | – | – | inconclusive: 10 µM [inhibitor, single point] |
| O=C(Nc1c(C(=O)N2CCN(c3ccccc3)CC2)oc2ccccc12)c1ccc(Br)o1 | – | – | active: 10 µM |
| O=C([C@@H]1C[C@H](F)CN1S(=O)(=O)Cc1ccccc1Cl)N1CCCCC1 | – | inactive: -15.6% | – |

| SMILES | outcome | activity, negative = inhibition | Potency |
| --- | --- | --- | --- |
| CCN(Cc1nc(C)no1)C(=O)CC1COCCN1C(=O)c1ccco1 (stereo not drawn) | – | inactive: 0.434% | – |
| COC(=O)c1c(NC(C)=O)c2cc(NC(C)CC(C)(C)O)cnc2n1CCC(C)C (stereo not drawn) | – | inactive: -17.1% | – |
| O=C1NCCCCCCN(C(=O)CCC2CCCC2)[C@H]2CCC[C@@H]12 | – | – | inconclusive: 8.91 µM [inhibitor, partial curve, poor fit] |
| COc1ccc(N2C(=O)CS(=O)(=O)C23C(=O)N(Cc2cccc(F)c2)c2ccccc23)cc1OC (stereo not drawn) | – | – | inconclusive: 10 µM [inhibitor, single point] |
| COC(=O)c1ccc2nc(C[C@@H]3C[C@@H](C(C)C)[C@H](CN(C)C)C=C3C)[nH]c2c1 | – | – | active: 12.6 µM |
| O=C(Nc1ccc(F)cc1)N1CCN(c2ccccc2F)CC1 | – | – | inconclusive: 10 µM [inhibitor, partial curve] |
| COc1cc(NC(=O)Cn2c(-c3cnccn3)nc(C)c(C)c2=O)cc(OC)c1OC | – | – | inconclusive: 10 µM [inhibitor, single point] |
| COc1cccc(CNCCSc2nnnn2C)c1OCc1ccccc1Cl | – | – | inconclusive: 5.01 µM [inhibitor, partial curve, poor fit] |
| COCCC1(NC(=O)c2ccccc2)CCN(Cc2cn[nH]c2-c2cccs2)CC1 | – | – | active: 8.91 µM |
| COc1ccccc1CC(=O)N1CCC(c2n[nH]c(=O)n2Cc2ccc(F)cc2)CC1 | – | inactive: -16.3% | – |
| COc1ccnc(-c2nnc3ccc(N(C)CCN(C)C)nn23)c1 | – | inactive: 16.3% [at 44.1 µM] | – |
| O=C(CCC1CCN(Cc2cc3ccccc3o2)CC1)NC1CCN(Cc2ccccc2)C1 (stereo not drawn) | – | – | inconclusive: 11.2 µM [inhibitor, single point] |
| CC(=O)Nc1ccc(/C=C/c2nc(-c3ccccc3O)n(-c3ccccc3)n2)cc1 | – | – | inconclusive: 7.94 µM [inhibitor, single point] |
| O=C([C@@H]1C[C@H](Oc2cccnc2)CN1C(=O)c1cccnc1)N1CCCC1 | – | inactive: 15.3% | – |
| COCCN1C(=O)c2ccccc2C(C(=O)Nc2nc3ccccc3[nH]2)C12CCCCC2 (stereo not drawn) | – | – | active: 1.78 µM |
| Cc1nc(-c2ccccc2)cc([C@H]2CN3CC[C@H]2C[C@@H]3CNC2CCOCC2)n1 | – | – | inconclusive: 2.24 µM [inhibitor, full curve, poor fit] |
| COc1cccc([C@@H]2CCN(Cc3ccc(NC(C)=O)cc3)C[C@H]2O)c1 | – | inactive: -7.42% | – |
| CCOc1ccccc1C1NC(=O)N(CC(=O)Nc2ccc(F)c(Cl)c2)C2=C1C(=O)OC2 (stereo not drawn) | – | inactive: -10.3% | – |
| CCOC(=O)c1cccc(NC(=O)NCc2cccn2Cc2ccccc2)c1 | – | – | inconclusive: 11.2 µM [inhibitor, single point] |
| O=C(NC1C[C@H]2CC[C@@H](C1)N2C(=O)Cc1ccc(Br)cc1)c1ccncc1 (stereo partly drawn) | inactive | – | – |
| CCCN1CC(Oc2cccc(C(=O)N3CCOCC3)c2)C1 | – | – | inconclusive: 2 µM [inhibitor, full curve, poor fit] |
| COc1ccc(-n2c(=O)[nH]c3cccnc32)cc1 | – | – | inconclusive: 8.91 µM [inhibitor, partial curve, poor fit] |
